Values joined by “and” are separate entries in the source; they are usually repeats but may differ in a detail not shown here. Equal entries are not always repeated. Among all 200,000 compounds or so, about 4,500 (2.2%) were called active. Inconclusive means that the source gave no clear call. Such entries were picked first, then a sample of the others. Calls follow the shape of the dose curve; as a rule, active = well fitted inhibition curve with a large enough effect; inconclusive = small, poorly fitted or top-dose-only effect, or effect the other way; inactive = flat fitted curve, though single readings scatter. Where the call is inconclusive, the potency comes from a doubtful curve fit.
Target: Cruzipain (Trypanosoma cruzi) (UniProt P25779)
Sequence of UniProt P25779 (P25779 whole entry, looked up): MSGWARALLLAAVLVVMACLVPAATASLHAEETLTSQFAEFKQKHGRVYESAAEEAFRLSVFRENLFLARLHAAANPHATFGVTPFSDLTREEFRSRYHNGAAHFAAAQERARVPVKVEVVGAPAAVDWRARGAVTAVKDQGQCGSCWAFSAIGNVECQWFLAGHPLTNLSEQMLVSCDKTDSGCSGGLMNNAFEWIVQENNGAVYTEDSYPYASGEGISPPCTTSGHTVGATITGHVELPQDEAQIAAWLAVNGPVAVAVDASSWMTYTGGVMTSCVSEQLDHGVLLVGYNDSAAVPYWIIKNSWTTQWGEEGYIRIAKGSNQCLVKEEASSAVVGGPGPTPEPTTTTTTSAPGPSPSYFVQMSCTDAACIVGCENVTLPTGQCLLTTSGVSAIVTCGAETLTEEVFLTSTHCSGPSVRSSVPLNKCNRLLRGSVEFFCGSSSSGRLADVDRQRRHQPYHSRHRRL
Experiment: qHTS Assay for Promiscuous and Specific Inhibitors of Cruzain (without detergent); also: nearly all actives have a fitted effect of over 40% in size;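 as to max response, negative = inhibition: plate controls were enzyme without inhibitor for no effect and buffer without enzyme for full effect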
Details: purified cruzain, Z-FR-AMC fluorescence, no detergent
Outline: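 Detergent-free condition (0.00005% Triton X-100) in acetate buffer pH 5.5 with DTT. 1.5 nM enzyme and compound were pre-mixed 15 min, then 2 uM Z-FR-AMC substrate added; reaction progress from fluorescence change between first and third reads (60 s).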
Potency is read from the fitted curve at half-maximal effect; tags tell the direction and shape of the fitted curve.

| SMILES | Potency | max response, negative = inhibition |
| --- | --- | --- |
| Cc1cccc(C(=O)N2CCC(=O)N(C(COCc3ccc(Cl)cc3)Cc3ccccc3)CC2)c1 (centres undefined) | inconclusive: 39.8 µM [activator, single point] |  |
| O=C(Nc1ccc(F)cc1)C1CC(=O)n2c(nc3ccccc32)N1 (centres undefined) | inconclusive: 39.8 µM [inhibitor, single point] |  |
| Cc1ccc(NC(=O)N2CCc3cc(S(=O)(=O)N4CCC(C)CC4)ccc32)cc1C |  | inactive: 5.67% |
| CC1CN(c2nc3c(c(=O)n(Cc4ccc(Cl)c(Cl)c4)c(=O)n3C)n2C)CC(C)O1 (centres undefined) | inconclusive: 31.6 µM [activator, partial curve] |  |
| COc1cc(Nc2nc3ccccc3c3nnc(C)n23)cc(OC)c1 | inconclusive: 31.6 µM [activator, partial curve] |  |
| OC(COCC(F)(F)C(F)(F)C(F)(F)C(F)F)Cn1c2ccccc2c2ccccc21 (centres undefined) | inconclusive: 0.158 µM [inhibitor, single point] |  |
| Cc1ccc(C(=O)Nc2nc3ccccc3s2)s1 | inconclusive: 39.8 µM [inhibitor, single point] |  |
| COc1ccc2c(c1)C(=O)[C@@H](OC(=O)Nc1cc(OC)c(OC)c(OC)c1)[C@H](c1ccc(OC)c(Br)c1)O2 |  | inactive: -15.2% |
| CN(C)c1ccc(N/C=C/C(=O)c2ccccc2)cc1 | inconclusive: 39.8 µM [inhibitor, single point] |  |
| CC(C)Cn1c2c(c(O)c(C(=O)Nn3c(Cc4ccccc4)nc4ccccc4c3=O)c1=O)CCCC2 | inconclusive: 39.8 µM [inhibitor, single point] |  |
| C=Cc1ccc(CN2C(=O)N(c3cccc(Cl)c3)S(=O)(=O)c3ccccc32)cc1 | inconclusive: 39.8 µM [inhibitor, single point] |  |
| COc1ccc(NC(=O)C(OC(=O)c2ccc([N+](=O)[O-])o2)c2ccccc2)cc1Cl (centres undefined) | inconclusive: 31.6 µM [inhibitor, single point] |  |
| O=C(CCl)c1ccccc1 |  | inactive: -5.04% |
| COc1ccc(C(=O)n2nc(-c3ccco3)nc2NCc2cccs2)cc1 |  | inactive: -4.69% |
| CS(=O)(=O)Nc1cccc(-c2nccc(-n3ccnc3)n2)c1 |  | inactive: 2.96% |
| CCc1ccc(-c2nc(C(N)=O)c3[nH]c(=O)n(-c4ccccc4OC)c3n2)cc1 | inconclusive: 15.8 µM [activator, partial curve] |  |
| CCC1=Nc2cc(C(=O)NC3CCCC3)ccc2Sc2ccc(Br)cc21 | inconclusive: 31.6 µM [inhibitor, single point] |  |
| O=C(Nc1ncc(Cc2cc(Cl)ccc2Cl)s1)c1ccc([N+](=O)[O-])cc1 | active: 12.6 µM |  |
| Cc1ccc2nc(SCC(=O)NCc3cccs3)c(C#N)cc2c1 | active: 10 µM |  |
| O=C(/C=C/c1ccc(F)cc1)Nc1nc2n(n1)C(c1ccc(Cl)cc1)C=C(c1ccccc1)N2 (centres undefined) |  | inactive: 7.25% |
| Cn1cc(/C=C/c2nc3ccccc3c(=O)n2-c2cccc([N+](=O)[O-])c2)c2ccccc21 | active: 10 µM |  |
| Cc1ccc(-c2cc3nc(-c4ccccc4)cc(N)n3n2)cc1 | active: 25.1 µM |  |

| SMILES | Potency | max response, negative = inhibition |
| --- | --- | --- |
| COc1cccc(COc2ccccc2C2Nc3ccc(Br)cc3C(=O)N2NC(=O)c2ccncc2)c1 (centres undefined) | inconclusive: 25.1 µM [inhibitor, single point] |  |
| Cc1cc(C)c(S(=O)(=O)/N=C2/C=C(Sc3ncn[nH]3)C(=O)c3ccccc32)cc1C | inconclusive: 31.6 µM [inhibitor, single point] |  |
| COc1ccc(-c2nc(-c3ccccc3)c(-c3ccc(O)cc3)[nH]2)cc1 | inconclusive: 39.8 µM [activator, single point] |  |
| CCCC(CCC)C(=O)NNc1cc(=O)c2c(=O)n(C)c(=O)n(C)c2[nH]1 | inconclusive: 6.31 µM [activator, single point] |  |
| O=C1c2ccccc2C2=Nc3ccccc3SC(c3ccc(Cl)cc3)C12 (centres undefined) | inconclusive: 39.8 µM [inhibitor, single point] |  |
| CCc1ccc(NC(=O)CSc2nc3nccnc3c(=O)n2CCc2c[nH]c3ccccc23)cc1 | inconclusive: 39.8 µM [activator, single point] |  |
| COc1ccc(-c2nc(C)c(CCNC(=O)Cc3ccc(F)cc3)s2)cc1OC | inconclusive: 31.6 µM [activator, single point] |  |
| CCc1ccc(NC(=O)C2CCN(C(=O)N3CC(CC)Oc4ccccc43)CC2)cc1 (centres undefined) | inconclusive: 39.8 µM [activator, single point] |  |
| NCCC(=O)N[C@@H](Cc1cnc[nH]1)C(=O)O |  | inactive: 18.3% |
| COc1ccc(Cc2nnc(NC(=O)c3cccc([N+](=O)[O-])c3)s2)cc1 | inconclusive: 31.6 µM [inhibitor, single point] |  |
| NC(=O)c1cccnc1 |  | inactive: 3.92% and inactive: 3.09% |
| COc1ccc(C(C)=O)cc1COC(=O)c1ccc(S(=O)(=O)N2CCOCC2)cc1 | inconclusive: 31.6 µM [activator, single point] |  |
| COc1cc(S(=O)(=O)Nc2ccccc2)ccc1N=Cc1c(C)[nH]n(-c2ccc(C)cc2)c1=O | inconclusive: 31.6 µM [inhibitor, single point] |  |
| Cc1cccc(NC(=O)N2CCc3c(sc4c3CCCC4)C2c2ccc(F)cc2)c1 (centres undefined) | inconclusive: 5.01 µM [inhibitor, partial curve] |  |
| CN1CCN(CCOc2ccc(Cl)c(Cl)c2)CC1 | inconclusive: 0.794 µM [activator, full curve, poor fit] |  |
| COc1ccc(S(=O)(=O)N[C@@H](Cc2ccccc2)C(=O)N2CC[C@@]3(O)CCCC[C@H]3C2)cc1 |  | inactive: 20% |
| Cc1ccc(S(=O)(=O)Nc2cc(C(=O)NCCN3CCCC3)ccc2N2CCCCC2)cc1 | inconclusive: 20 µM [inhibitor, partial curve] |  |
| COc1ccc([N+](=O)[O-])cc1NC(=O)c1cn(-c2ccc(C)c(C)c2)c(=O)c2ccccc12 | inconclusive: 39.8 µM [inhibitor, single point] |  |
| COc1cccc(C(=O)NCC(c2ccc(N(C)C)cc2)N2CCCC2)c1OC (centres undefined) |  | inactive: 17% |
| O=C(O)CCC(=O)N1CCc2cc(S(=O)(=O)NC3CCCc4ccccc43)ccc21 (centres undefined) | inconclusive: 39.8 µM [activator, single point] |  |
| Cc1cn2c(=O)c(S(=O)(=O)NCCc3ccccc3)c(C)nc2s1 |  | inactive: -18.6% |
| N#Cc1ccsc1NC(=O)CN1CCN(S(=O)(=O)c2ccc3ccccc3c2)CC1 | inconclusive: 20 µM [inhibitor, partial curve] |  |

| SMILES | Potency | max response, negative = inhibition |
| --- | --- | --- |
| CCOc1cc(/C=N/NC(=O)CN(CCc2ccccc2)S(=O)(=O)c2ccc(NC(C)=O)cc2)ccc1O | inconclusive: 39.8 µM [activator, single point] |  |
| O=C(NCc1ccccn1)c1ccc2nc(-c3ccco3)c(-c3ccco3)nc2c1 | active: 25.1 µM |  |
| CCc1ccc2oc(-c3cc(N)ccc3O)nc2c1 | inconclusive: 39.8 µM [inhibitor, single point] |  |
| O=C(CNC(=O)/C(=C\c1ccccc1)NC(=O)c1ccc(Br)cc1)OCc1ccccc1 |  | inactive: -9.93% |
| CC1CN(c2oc(-c3cccs3)nc2C#N)CC(C)O1 (centres undefined) | inconclusive: 20 µM [inhibitor, single point] |  |
| COc1cccc(-c2cc(=O)c3cc(NC(=O)c4ccc(Cl)cc4)ccc3[nH]2)c1 | inconclusive: 11.2 µM [inhibitor, single point] |  |
| COc1cc(Br)c(/C=C(\C#N)c2nc3ccccc3[nH]2)cc1OC | inconclusive: 39.8 µM [activator, single point] |  |
| CCc1nn(CC(=O)N2CCCCC2)c(=O)c2cc3sccc3n12 |  | inactive: -2.24% |
| O=C(N/N=C/c1cc([N+](=O)[O-])ccc1O)c1cc(-c2ccccc2)nc2ccccc12 | inconclusive: 39.8 µM [inhibitor, single point] |  |
| Cc1cccc(NC(=O)CSc2nc3ccc(NC(=O)c4ccco4)cc3s2)c1 |  | inactive: 2% |
| Cc1ccc(-c2nc3cc(C(C)C)ccc3o2)cc1NC(=O)c1cccs1 |  | inactive: 1.73% |
| COC(=O)\C(C(C)=O)=C(/C=C/C=C/C=C/N(C)C)N(C)C | inconclusive: 25.1 µM [activator, partial curve] |  |
| CCOC(=O)c1c(NC(=O)C2=C(C)NC(=S)NC2c2ccc(F)cc2F)sc(C)c1C (centres undefined) | inconclusive: 15.8 µM [inhibitor, partial curve] |  |
| N#Cc1nc(N2CCCC2)nc(N2CCCC2)n1 | active: 5.01 µM |  |
| COc1ccc2c(c1)CCc1c(C(=O)Nc3cc(C)ccc3O)noc1-2 | inconclusive: 10 µM [inhibitor, partial curve] |  |
| CCCCOc1ccc(CNC(=O)C2CCN(c3nnc(-n4cccc4CNc4ccc(C)cc4)s3)CC2)cc1 |  | inactive: -10.2% |
| O=C(NC1=NCCS1)c1sc2cc(Cl)cc(Cl)c2c1Cl | inconclusive: 31.6 µM [inhibitor, single point] |  |
| Cc1nc2cc(-c3ccccc3)nn2c(C)c1CCC(=O)N1CCN(c2ccccn2)CC1 | inconclusive: 31.6 µM [activator, single point] |  |
| COCc1cc(C)nc2sc3c(c12)NC(c1ccc(O)cc1)N(c1ccc(OC)cc1)C3=O (centres undefined) | inconclusive: 39.8 µM [activator, single point] |  |
| CC(CCC(=O)O)C1CCC2C3C(O)C[C@@H]4CC(O)CC[C@@]4(C)C3CC[C@@]12C (some centres undefined) | inconclusive: 39.8 µM [activator, single point] and inconclusive: 20 µM [activator, partial curve] |  |

Source: PubChem BioAssay AID1476 (National Center for Advancing Translational Sciences (NCATS), 2009)
